For this assay, the system named is Plasmodium falciparum. The experiment in a line: Confirmatory screen in NF54 pLDH assay, in single point, at 2uM, 72h. The note with it: timepoint 72 hour. The class given is functional, Erythrocyte.

As a reminder, the % Inhibition is the change of the read-out against control, counted positive when it falls.

“And” between values parts separate entries of the source, which are not always exact repeats. Identical values can stand only once. The campaign covered roughly 4,800 compounds. About 410 (8.5%) showed an effect of 50% or more. This is one part of the list.

Consider `Cc1ccc(C2=NC3(CCCC3)NC2=O)cc1`, for which the “% Inhibition” value is 17%. As for `COc1cccc(-c2ccc(=O)n(CCC(=O)N3CCN(Cc4ccc5c(c4)OCO5)CC3)n2)c1`, the “% Inhibition” value is recorded as 14%. Take `C[C@@H](C1CC1)N(C1CC1)S(=O)(=O)c1cccc2c1N=S=N2`: the “% Inhibition” value is recorded as 6%. As for `O=C(c1cscn1)N1CC[C@H](Oc2cccc(Cl)c2)C1`, the “% Inhibition” value came out at 39%. Turning to `CN1CCN(C(=O)C[C@@H]2CCN3C[C@@H]2/C=C\COc2ccccc2CN(C(=O)CC(C)(C)C)CC3=O)CC1`, the “% Inhibition” value was found to be 9%. Consider `CCCc1noc([C@H]2CC(=O)N(c3ccccc3C)C2)n1`, for which the “% Inhibition” value is given as 8%. As for `Cc1nnc(C(C)NC(Cc2ccccc2)c2sccc2C)s1` (centres undefined), the “% Inhibition” value was -18%.

On to `O=C(Cn1ccnc1)N1CCCCCC1CC(O)c1ccccc1` (centres undefined), for which the “% Inhibition” value is reported as 10%.

Consider `Cc1ccc(CNC(=O)c2nc(-c3ccncc3)cs2)o1`, for which the “% Inhibition” value was 7%. Still for that read-out and setting: for `O=C(Cc1ccc(N(Cc2cccc(F)c2)C(=O)c2cccc(F)c2)cc1)NCCN1CCCCC1` the value was 29%. Consider `O=C1CCC[C@H](O)N1Cc1ccc(F)cc1`, for which the “% Inhibition” value is on record as 8%. As for `COc1ccc(N2CCN(C(=O)CCn3nc(-c4cccc(Cl)c4)ccc3=O)CC2)cc1`, the “% Inhibition” value is listed as -21%.

In the case of `CCN1CN(C(=O)Cc2c[nH]c3cc(C)ccc23)CC1=O`, the “% Inhibition” value is -15%. For `CC(=O)N[C@H]1[C@H](c2ccccc2)N(CCCc2ccccc2)CC[C@@]1(C)O`, the “% Inhibition” value worked out at 4%. On the same count and under the same terms, the result for `O=C1c2cc3ccccc3c(-c3ccccc3)c2C(=O)N1c1ccccc1` reads -16%; that for `CC(C(=O)Nc1ncccn1)N1CCCC1Cn1cccn1` (centres undefined), -8%; that for `COc1ccc2c(c1)CN(C(=O)[C@H]1OCCO[C@H]1C)CCO2`, -4%. For the compound `O=C1c2cc3ccccc3n2C[C@](C(=O)NC2CCCCCCC2)(c2ccccc2)N1Cc1cccc(Cl)c1`, the “% Inhibition” value was -5%. Regarding `CCn1nc(C(=O)N(C2CCCCC2)C2CC2)c2ccccc2c1=O`, the “% Inhibition” value is reported as -7%.

In the case of `Cc1csc(S(=O)(=O)N2CC[C@H](n3cccn3)C2)c1`, the “% Inhibition” value is listed as -13%. Take `Cc1nccc(O[C@H]2CCCN(C(=O)CN3CCN(c4ccccc4)C3=O)C2)n1`: the “% Inhibition” value was 9%. Take `Fc1ccc(-c2csc(N3CCC[C@H](c4cn[nH]c4)C3)n2)cc1`: the “% Inhibition” value is listed as 11%.

Regarding `COc1ccc(Br)c(C#N)c1C`, the “% Inhibition” value was determined as 10%.

In the case of `CCC1C(C(=O)NCCN(C)CCOC)CCN1C(=O)OC(C)(C)C` (centres undefined), the “% Inhibition” value amounted to 1%. With `CC(CC(=O)O)CC(=O)N1CC(C)CC(C)C1` (centres undefined), the “% Inhibition” value was found to be 14%. With `COc1cccc(CNC(=O)Cn2c(=O)n(Cc3cccc(OC)c3)c(=O)c3sccc32)c1`, the “% Inhibition” value came to 12%. Consider `COc1ccc(C2=Nc3ccc(S(=O)(=O)N4CCOCC4)cc3S(=O)(=O)N2)cc1`, for which the “% Inhibition” value was -5%. As to `CCS(=O)(=O)Nc1ccc(Br)cc1Cl`, the “% Inhibition” value was -1%. For `COc1ccnc(CN2CC[C@](C)(O)[C@H](O)C2)c1`, the “% Inhibition” value came to 6%.

On to `O=C(Cn1c(=O)n(Cc2ccc3c(c2)OCO3)c(=O)c2sccc21)Nc1ccc(Cl)cc1F`, for which the “% Inhibition” value came out at 13%. Take `CC[C@@H](C(=O)NCc1ccc(OC(C)C)cc1)n1ccc2cc(S(=O)(=O)N3CCCCC3)ccc21`: the “% Inhibition” value is on record as 10%.

For `Nc1cccnc1N1CCc2ccccc21`, the “% Inhibition” value is listed as 12%. Turning to `Cc1cnccc1NCCNCc1cccc(O)c1Cl`, the “% Inhibition” value is on record as 101%. For `CCc1ccc(NC(=O)[C@H](C)N2CCC(NS(=O)(=O)c3cccs3)CC2)cc1`, the “% Inhibition” value is listed as 77%. The same measure, in the same setting: for `COc1c(Cl)cc(Cl)cc1C#N` the value was -17%. Regarding `CN(Cc1cccnc1)c1ccc(S(=O)(=O)C(F)F)cc1`, the “% Inhibition” value stood at 0%.

In the case of `Cc1n[nH]cc1CNC1CC2CCC1C2` (centres undefined), the “% Inhibition” value came to 2%.

Consider `CCO[C@@]1(c2ccccc2)NC(=O)c2cc3c(cc21)OCCO3`, for which the “% Inhibition” value is recorded as -18%. With `Cc1cc(S(=O)(=O)NC[C@H]2CCCCN2)sc1C`, the “% Inhibition” value was -6%.

Consider `Oc1nccc(C(F)(F)C(F)(F)F)n1`, for which the “% Inhibition” value is reported as -3%. For the compound `O=C(/N=C(/c1ccccc1)N1CCCCC1)C(F)(F)C(F)(F)C(F)(F)C(F)(F)C(F)(F)C(F)(F)F`, the “% Inhibition” value (2 µM) was 1% and 0%.

In the case of `CC1CC(=O)N(CC(=O)N2CCCCCC2)C(=O)C1`, the “% Inhibition” value is listed as -9%. As for `COc1ccccc1C1c2[nH]c3ccccc3c2C[C@H]2C(=O)N(CC(O)c3ccccc3)CC(=O)N12` (some centres undefined), the “% Inhibition” value is given as 12%. On the same count and under the same terms, for `Cc1nn(Cc2cccc(C(F)(F)F)c2)c(=O)n1-c1ccc(OCc2ccccc2)cc1` the value was -11%; for `O=C(OCc1ccc(C(F)(F)F)nc1)c1ccc(C(F)(F)F)nc1`, 14%. Regarding `COC1CCCC1NC(=O)Nc1ncc(Br)cc1C` (centres undefined), the “% Inhibition” value stood at 79%. Turning to `Cc1nc(Nc2ccc(F)cc2)nc2c1ncn2-c1ccc(F)cc1`, the “% Inhibition” value is reported as -14%. Take `Cc1cc(NC(=O)C(=O)NC2CC(C)CC(C)(C)C2)n(-c2nc3c(c(=O)[nH]2)CCC3)n1` (centres undefined): the “% Inhibition” value is 84%.

Take `CC(C)(NCc1ccccc1Cl)C(=O)O`: the “% Inhibition” value is 13%.

As to `Cc1ccsc1CNCc1ccc2c(c1)OCO2`, the “% Inhibition” value is on record as -16%. Still for that read-out and setting: the result for `COc1cc(OC)c(OC)cc1CNC(C)C` reads 5%; that for `O=C1NCCC[C@@H]1NS(=O)(=O)N1CCc2ccccc2C1`, 3%; that for `Cc1ccc2c(c1)c1c(n2S(=O)(=O)c2ccc(C(C)(C)C)cc2)CCCN(C)C1`, 94%. Regarding `CC(C)CC1NC2(C(=O)N(Cc3ccc(F)cc3)c3ccccc32)C2C(=O)N(c3ccccc3)C(=O)C12` (centres undefined), the “% Inhibition” value was determined as 1%. With `COc1ccc(-n2cnc3cc(NCc4cccs4)ccc32)cc1`, the “% Inhibition” value was -6%. Take `Cc1nn(-c2nncc(-c3ccc(Cl)cc3)n2)c2c1[C@@H](c1cc(F)ccc1F)CC(=O)N2`: the “% Inhibition” value is 18%.

In the case of `CN1CCN(C(=O)[C@@H]2Cc3ccccc32)CC1`, the “% Inhibition” value is 3%. As to `COc1ccc(CC(=O)N2CCC3(CC[C@@H]3O)CC2)cc1Cl`, the “% Inhibition” value was found to be 2%. Still for that read-out and setting: the result for `COc1cc(-c2nnc3n2CC(C)(C)CN3)cc(OC)c1OC` reads 14%; that for `CCN(CC)C(=O)[C@@H]1CCCN1C(=O)CCCc1ccccn1`, -11%; that for `CCN1C(=O)Cc2cc(NS(=O)(=O)Cc3ccccc3)ccc21`, 12%. For the compound `CNC(=NCc1ccc(-c2ccc(OC)cc2)s1)NC`, the “% Inhibition” value is reported as 7%. For `CN1CCC(N2CCN(Cc3ccc4cc(O)ccc4c3)CC2)CC1`, the “% Inhibition” value amounted to 92%.

For `O=C1O[C@@H](CO)CN1c1cccc(F)c1`, the “% Inhibition” value was -2%. Take `O=C(Nc1ccccc1)Nc1cnc(-n2ccnc2)nc1`: the “% Inhibition” value is 30%.

Turning to `CCc1ncsc1C(=O)OCC1(C#N)CCOCC1`, the “% Inhibition” value was -2%. Still for that read-out and setting: the result for `COc1ccc([C@H](NC(=O)CCc2ccccc2)c2c(O)ccc3ccccc23)cc1` reads -6%; that for `COCC(=O)NC1CCC(NC(=O)c2csc(COc3cc(C)ccc3C(C)C)n2)CC1` (centres undefined), 7%. In the case of `CC(C)(CO)NCc1ccccc1Cl`, the “% Inhibition” value amounted to 0%.

`COc1ccc(S(=O)(=O)Nc2c(C)nc3ncnn3c2O)cc1`: the “% Inhibition” value is -4%. Turning to `O=C(N1CCC(O)CC1)C(F)(F)Cl`, the “% Inhibition” value was determined as 10%. Regarding `Cc1ccc(NC(=O)c2c(C)nc3sc(C(=O)NCc4ccccc4)c(N)c3c2-c2cccs2)c(C)c1`, the “% Inhibition” value is recorded as 11%.

Consider `COc1ccsc1S(=O)(=O)N(CCN(C)C)C1CCCC1`, for which the “% Inhibition” value is recorded as -9%. With `Cc1cc(NC(=O)C(=O)Nc2cnn(CCC(C)C)c2C)n(C)n1`, the “% Inhibition” value was -22%. As for `CCCCC(=O)N1CCc2[nH]nc(C(=O)NCCc3ccc(OC)cc3)c2C1`, the “% Inhibition” value stood at 2%. With `COc1ccc(CCNC(=O)CCC(=O)Nc2ccc(OCc3ccccc3)cc2)cc1OC`, the “% Inhibition” value is recorded as -7%. As to `CN(Cc1cccc(OC(F)(F)F)c1)[C@H]1CCc2nn(C)c(=O)n2CC1`, the “% Inhibition” value is recorded as 3%. As for `COc1ccc(CCNC(=O)Cc2ccc3c(c2CO)OCO3)cc1OC`, the “% Inhibition” value is given as -21%. Regarding `O=C(Nc1ccccc1)C(=O)Nc1ccc2ncc(Cl)n2c1`, the “% Inhibition” value amounted to 7%. For the compound `Cc1cc(C(=O)N2CCCC[C@H]2c2nc(=O)[nH][nH]2)nn1C(F)F`, the “% Inhibition” value stood at 10%.

As to `CC(C)c1ccc2ncnc(N[C@H]3CCc4[nH]cnc4C3)c2c1`, the “% Inhibition” value is given as 101%. On the same count and under the same terms, for `CCOC(=O)c1nccc(C#N)c1Cl` the value was 5%; for `O=C(Nc1ccccc1Cl)OCc1cncs1`, 9%; for `O=S(=O)(NCc1cccnc1)Oc1ccccc1O`, 12%. On to `Cc1c(NS(=O)(=O)c2cccc3nsnc23)c(-n2cnnc2)nn1C`, for which the “% Inhibition” value was determined as 3%. Same read-out and setting: the result for `CC(Oc1ccc2c(c1)C(c1ccccc1)N(Cc1ccccc1F)CC2)C(=O)NC1CC1` (centres undefined) reads 50%; that for `Cc1cc(-c2ccc(S(=O)(=O)N3CCOCC3)s2)n[nH]1`, 7%; that for `Cc1ccc(S(=O)(=O)N2CC[C@H](CC(=O)NCc3ccccc3)C2)cc1C`, -9%. `O=C1NCCC[C@@H]1NC(=O)[C@@H]1CN(C(=O)C2CCCCC2)CCN1C(=O)Nc1ccccc1`: the “% Inhibition” value worked out at 12%. For `CC1=NN(C(=O)Cc2ccc(Cl)c(O)c2)C(=O)C1`, the “% Inhibition” value is given as 11%. For `Cc1ccc(S(=O)(=O)Nc2cccc(-c3csc(C)n3)c2)cc1`, the “% Inhibition” value turned out to be 10%. Take `CNC(=O)CCS(=O)(=O)CCCC(=O)Nc1c(C)cc(C)cc1C`: the “% Inhibition” value is listed as -15%. Consider `O=C(c1ccccc1)n1c(=O)n(C(=O)c2ccccc2)c2ccccc21`, for which the “% Inhibition” value is listed as 7%.

With `CC(=O)N1CCc2sc(C(=O)N3CCN(c4ccccc4F)CC3)cc2C1`, the “% Inhibition” value amounted to 6%.

For `Cn1nnc(Cn2nnc(-c3ccccc3)n2)n1`, the “% Inhibition” value came out at 0%. The same measure, in the same setting: for `O=S(=O)(CCCc1cn[nH]c1)[C@H]1CCc2c(F)cc(F)cc21` the value was 13%; for `COc1ccc(CC(=N)Nc2cc3cc(OC)c(OC)cc3c(Cc3ccc(OC)c(OC)c3)n2)cc1OC`, 89%; for `COc1nc(-c2cccc(C(=O)N3C[C@@H]4CC[C@H](C3)C(=O)N4)c2)ncc1F`, 85%.

Regarding `COc1cccc(C(=O)N2CCCO[C@H](C(C)C)C2)c1`, the “% Inhibition” value is reported as -14%.

In the case of `CC(C)(C)OC(=O)NCC#Cc1cccc(F)c1`, the “% Inhibition” value is recorded as -19%.

For `COc1ccc2[nH]c(-c3nnc(Cn4c(C)cc5ccccc54)s3)cc2c1`, the “% Inhibition” value worked out at 7%. Consider `CNS(=O)(=O)c1ccc(NCc2nnc3ccccn23)c(F)c1`, for which the “% Inhibition” value came to 6%.

In the case of `C[C@](O)(CNC(=O)Cn1nc2ccccn2c1=O)c1cccs1`, the “% Inhibition” value is recorded as -1%. Same read-out and setting: the result for `Cc1ccc(CC[C@H]2Nc3ccccc3C(c3ccccc3)(c3ccccc3)O2)o1` reads 66%.

The record behind these values is ChEMBL document CHEMBL4888484, “Replenishing the malaria drug discovery pipeline: Screening and hit evaluation of the MMV Hit Generation Library 1 (HGL1) against asexual blood stage Plasmodium falciparum ,using a nano luciferase reporter read-out” (2022).
